# Assay results taken from the BET-seq Pho4 binding data (Le et al. 2018).
# The other results are listed elsewhere or left out. Values were computed here from the reads of four pooled replicates and scatter widely.
# Biological target: T1, Pho4 (S. cerevisiae) (UniProt P07270)
# T1 sequence: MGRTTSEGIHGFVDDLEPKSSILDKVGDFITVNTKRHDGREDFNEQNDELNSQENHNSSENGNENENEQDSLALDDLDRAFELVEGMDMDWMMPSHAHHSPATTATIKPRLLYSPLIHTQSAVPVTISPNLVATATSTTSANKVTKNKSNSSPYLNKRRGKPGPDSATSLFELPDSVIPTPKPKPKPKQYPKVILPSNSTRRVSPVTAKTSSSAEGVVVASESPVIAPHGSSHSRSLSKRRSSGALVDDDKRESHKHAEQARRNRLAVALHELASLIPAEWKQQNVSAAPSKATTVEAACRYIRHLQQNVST
# Experiment: relative binding free energy (BET-seq); higher = weaker binding
# Conditions: reference: library average
row,Sequence,relative binding free energy
1,TGGATCACGTGGTAAC,0.23 kcal/mol
2,ATGATCACGTGTTTGT,0.12 kcal/mol
3,GTGCGCACGTGTTGTT,-0.06 kcal/mol
4,GTTTGCACGTGGAGTA,0.12 kcal/mol
5,GCTGGCACGTGTGGTC,0 kcal/mol
6,CAGGGCACGTGTGTTA,0.08 kcal/mol
7,TGGAGCACGTGGGAAT,-0.1 kcal/mol
8,ATTCTCACGTGGGATG,0.08 kcal/mol
9,TGTTCCACGTGAAGGT,0.19 kcal/mol
10,GGAGTCACGTGCTTGA,0.16 kcal/mol
11,AGCTACACGTGGTTGT,0.06 kcal/mol
12,AGGGGCACGTGGAGCA,-0.09 kcal/mol
13,TAAGTCACGTGATGGT,0.17 kcal/mol
14,ACGGTCACGTGTTGTT,0.03 kcal/mol
15,TTGATCACGTGTAGGT,0.19 kcal/mol
16,TAGGTCACGTGGGGGA,-0.03 kcal/mol
17,GGTGACACGTGGGAAG,0.04 kcal/mol
18,TGAGTCACGTGATAGG,0.23 kcal/mol
19,ATGTACACGTGTTATT,-0.05 kcal/mol
20,CGTGTCACGTGGGCCG,-0.08 kcal/mol
21,AGCTTCACGTGGTGGA,0.29 kcal/mol

row,Sequence,relative binding free energy
1,TGCTCCACGTGTATGG,0.12 kcal/mol
2,TTAGTCACGTGTGATA,0.19 kcal/mol
3,TGGGCCACGTGAGTTC,0.25 kcal/mol
4,TAGGACACGTGCGGCG,0.12 kcal/mol
5,GGCAGCACGTGGAGGC,-0.1 kcal/mol
6,GGGTGCACGTGAGAGT,0.27 kcal/mol
7,GAAATCACGTGGAGGT,0.26 kcal/mol
8,CTGGCCACGTGTTTGT,-0.03 kcal/mol
9,TTTTGCACGTGGACTA,-0.07 kcal/mol
10,AATGGCACGTGTTAGA,-0.06 kcal/mol
11,GGTTTCACGTGTTATT,0.38 kcal/mol
12,CATGGCACGTGTAGTA,-0.08 kcal/mol
13,TGTCGCACGTGCGCGT,-0.15 kcal/mol
14,AGAGGCACGTGGTTTG,-0.13 kcal/mol
15,AGTGGCACGTGTGTCA,-0.02 kcal/mol
16,GCTATCACGTGGAGGT,0.26 kcal/mol
17,GGGTACACGTGTGTCG,0.15 kcal/mol
18,AGTATCACGTGGTAAT,0.12 kcal/mol
19,TATTTCACGTGTGCGA,0.42 kcal/mol
20,GGTTGCACGTGTTTCT,0.11 kcal/mol
21,TGGTACACGTGTACGT,0.07 kcal/mol

row,Sequence,relative binding free energy
1,AGGTTCACGTGTTAGG,0.26 kcal/mol
2,GATAGCACGTGGGCGG,-0.12 kcal/mol
3,CCTTGCACGTGAGTTG,0.23 kcal/mol
4,TCAGTCACGTGTAGGA,0.12 kcal/mol
5,TATGTCACGTGAGTGT,0.18 kcal/mol
6,AGTATCACGTGGGGTC,0.03 kcal/mol
7,GGTGTCACGTGGAGGC,0.11 kcal/mol
8,TTGTCCACGTGGAGGG,-0.04 kcal/mol
9,ACGGGCACGTGCGGTG,-0.27 kcal/mol
10,ATATGCACGTGTTAGT,-0.07 kcal/mol
11,AAAGACACGTGGTAGT,-0.06 kcal/mol
12,TGGGACACGTGCGGAG,0.07 kcal/mol
13,AGTTTCACGTGATATA,0.28 kcal/mol
14,GTATACACGTGATGTG,0.23 kcal/mol
15,TTTTCCACGTGCGGGT,0.16 kcal/mol
16,GTGTACACGTGGGGTG,-0.04 kcal/mol
17,GGTTTCACGTGATGTA,0.43 kcal/mol
18,GATGTCACGTGGATTA,0.15 kcal/mol
19,AAGGACACGTGTGATT,0.15 kcal/mol
20,GCTTTCACGTGATCGT,0.4 kcal/mol
21,GTTTACACGTGAGTAA,0.35 kcal/mol
